# Reference: the supplement of paper PMC8728848
# Some of the results follow.
# Tests used:
# Test in all cases: glycan array binding signal (z-score within array); higher = stronger binding
# Settings in all cases: glycan notation: IUPAC condensed, linker removed
# [1] = target: Man(a1-2)Man(a1-6)[Man(a1-3)]Man(a1-6)[Man(a1-2)Man(a1-2)Man(a1-3)]Man(b1-4)GlcNAc(b1-4)GlcNAc
# Summary of the method: (§1)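 The binding signal is a Z-score computed within each array. Data were drawn from 3228 arrays in the Consortium for Functional Glycomics database, restricted to those with a known protein sequence. Scores were averaged over arrays of the same protein sequence at different concentrations or buffers, and over linkers, and negative values can be taken as non-binding.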
# Man(a1-3)[Man(a1-6)]Man = target: Man(a1-3)[Man(a1-6)]Man
# Summary of the method: as §1
# [2] = target: Man(a1-3)[Man(a1-6)]Man(a1-6)[Man(a1-2)Man(a1-3)]Man(b1-4)GlcNAc(b1-4)GlcNAc
# Summary of the method: as §1
# [3] = target: Man(a1-3)[Man(a1-6)]Man(a1-6)[Man(a1-3)]Man
# Summary of the method: as §1
# [4] = target: Man(a1-3)[Man(a1-6)]Man(a1-6)[Man(a1-3)]Man(b1-4)GlcNAc(b1-4)GlcNAc
# Summary of the method: as §1
# [5] = target: Man(a1-3)[Man(a1-6)]Man(b1-4)GlcNAc(b1-4)GlcNAc
# Summary of the method: as §1
# Man(a1-6)Man = target: Man(a1-6)Man
# Summary of the method: as §1
# Man(b1-4)GlcNAc = target: Man(b1-4)GlcNAc
# Summary of the method: as §1
# Neu5Ac(a2-3)Gal = target: Neu5Ac(a2-3)Gal
# Summary of the method: as §1
# [6] = target: Neu5Ac(a2-3)Gal(b1-3)GalNAc
# Summary of the method: as §1
# [7] = target: Neu5Ac(a2-3)Gal(b1-3)GalNAc(b1-3)Gal(a1-4)Gal(b1-4)Glc
# Summary of the method: as §1
# [8] = target: Neu5Ac(a2-3)Gal(b1-3)GalNAc(b1-4)[Neu5Ac(a2-3)]Gal(b1-4)Glc
# Summary of the method: as §1
# [9] = target: Neu5Ac(a2-3)Gal(b1-3)GalNAc6S
# Summary of the method: as §1
# [10] = target: Neu5Ac(a2-3)Gal(b1-3)GlcNAc
# Summary of the method: as §1
# [11] = target: Neu5Ac(a2-3)Gal(b1-3)GlcNAc(b1-2)Man(a1-3)[Neu5Ac(a2-3)Gal(b1-3)GlcNAc(b1-2)Man(a1-6)]Man(b1-4)GlcNAc(b1-4)GlcNAc
# Summary of the method: as §1
# [12] = target: Neu5Ac(a2-3)Gal(b1-3)GlcNAc(b1-3)Gal(b1-3)GlcNAc
# Summary of the method: as §1
# [13] = target: Neu5Ac(a2-3)Gal(b1-3)GlcNAc(b1-3)Gal(b1-4)GlcNAc
# Summary of the method: as §1
# [14] = target: Neu5Ac(a2-3)Gal(b1-3)GlcNAc(b1-3)GalNAc
# Summary of the method: as §1
# [15] = target: Neu5Ac(a2-3)Gal(b1-3)GlcNAc6S
# Summary of the method: as §1
# [16] = target: Neu5Ac(a2-3)Gal(b1-3)[Fuc(a1-4)]GlcNAc
# Summary of the method: as §1
# [17] = target: Neu5Ac(a2-3)Gal(b1-3)[Fuc(a1-4)]GlcNAc(b1-3)Gal(b1-3)[Fuc(a1-4)]GlcNAc
# Summary of the method: as §1
# [18] = target: Neu5Ac(a2-3)Gal(b1-3)[Fuc(a1-4)]GlcNAc(b1-3)Gal(b1-4)[Fuc(a1-3)]GlcNAc
# Summary of the method: as §1
# [19] = target: Neu5Ac(a2-3)Gal(b1-3)[Neu5Ac(a2-3)Gal(b1-4)]GlcNAc
# Summary of the method: as §1
# [20] = target: Neu5Ac(a2-3)Gal(b1-3)[Neu5Ac(a2-6)]GalNAc
# Summary of the method: as §1
# Neu5Ac(a2-3)Gal(b1-4)Glc = target: Neu5Ac(a2-3)Gal(b1-4)Glc
# Summary of the method: as §1
# [21] = target: Neu5Ac(a2-3)Gal(b1-4)GlcNAc
# Summary of the method: as §1
# [22] = target: Neu5Ac(a2-3)Gal(b1-4)GlcNAc(b1-2)Man(a1-3)[GlcNAc(b1-2)Man(b1-4)GlcNAc(b1-2)Man(a1-6)]Man(b1-4)GlcNAc(b1-4)GlcNAc
# Summary of the method: as §1
# [23] = target: Neu5Ac(a2-3)Gal(b1-4)GlcNAc(b1-2)Man(a1-3)[Neu5Ac(a2-6)Gal(b1-4)GlcNAc(b1-2)Man(a1-6)]Man(b1-4)GlcNAc(b1-4)GlcNAc
# Summary of the method: as §1
# [24] = target: Neu5Ac(a2-3)Gal(b1-4)GlcNAc(b1-3)Gal(b1-3)GlcNAc
# Summary of the method: as §1
# [25] = target: Neu5Ac(a2-3)Gal(b1-4)GlcNAc(b1-3)Gal(b1-4)GlcNAc
# Summary of the method: as §1
# [26] = target: Neu5Ac(a2-3)Gal(b1-4)GlcNAc(b1-3)Gal(b1-4)GlcNAc(b1-3)Gal(b1-4)GlcNAc
# Summary of the method: as §1
# [27] = target: Neu5Ac(a2-3)Gal(b1-4)GlcNAc(b1-3)Gal(b1-4)[Fuc(a1-3)]GlcNAc
# Summary of the method: as §1
# [28] = target: Neu5Ac(a2-3)Gal(b1-4)GlcNAc(b1-3)GalNAc
# Summary of the method: as §1
# [29] = target: Neu5Ac(a2-3)Gal(b1-4)GlcNAc(b1-6)[Gal(b1-3)]GalNAc
# Summary of the method: as §1
# [30] = target: Neu5Ac(a2-3)Gal(b1-4)GlcNAc(b1-6)[Neu5Ac(a2-3)Gal(b1-3)]GalNAc
# Summary of the method: as §1
# [31] = target: Neu5Ac(a2-3)Gal(b1-4)GlcNAc6S
# Summary of the method: as §1
# [32] = target: Neu5Ac(a2-3)Gal(b1-4)[Fuc(a1-3)]GlcNAc
# Summary of the method: as §1
binder,measurement,setting,value
"exo-alpha-sialidase (Propionibacterium acnes), Q6A7G1 (protein) GSHMSGRAPAPVAATTQPKLVTGDITSTDQSGTNLFFGKKIVRNARGAIMKVDRTWPAAVPAPLPDVRADSSTRMLLGPVVDLAVNEHPEGVFYRIPALATASNGDLLASYDLRPGSAGDAPNPNSIVQRRSRDNGRTWGPQTVIHAGTPGRRKVGYSDPSYLVDPATGRILNFHVKSYDRGFATSEVGTDPDDRHVLHAEVSTSTDNGHTWTHRDITREITSDPTTRTRFVASGQGIALLHGPHAGRLIAQMTVRNSVGQQAQSIYSDDHGITWHAGNPVGRMMDENKVVELSDGTLMLNSRDAARSGRRKVAYSQDGGLTWGPVKLVDDLIDPTNNAQIIRAYPNARAGSAKARILLFTNARNATERVNGTLSVSCDDGRTWVSHQTYMPGEVGYTTAAVQSDGALGVLWERDGIRYSTIPMGWLNSVCPLAPSGRPTSGKPTSGTSLPPTAT",glycan array binding signal (z-score),[1],-0.355
same,glycan array binding signal (z-score),Man(a1-3)[Man(a1-6)]Man,-0.336
same,glycan array binding signal (z-score),[2],-0.305
same,glycan array binding signal (z-score),[3],-0.294
same,glycan array binding signal (z-score),[4],-0.356
same,glycan array binding signal (z-score),[5],-0.346
same,glycan array binding signal (z-score),Man(a1-6)Man,-0.309
same,glycan array binding signal (z-score),Man(b1-4)GlcNAc,-0.29
same,glycan array binding signal (z-score),Neu5Ac(a2-3)Gal,0.42
same,glycan array binding signal (z-score),[6],3.6
same,glycan array binding signal (z-score),[7],0.286
same,glycan array binding signal (z-score),[8],6.27
same,glycan array binding signal (z-score),[9],3.54
same,glycan array binding signal (z-score),[10],3.17
same,glycan array binding signal (z-score),[11],-0.092
same,glycan array binding signal (z-score),[12],2.6
same,glycan array binding signal (z-score),[13],1.55
same,glycan array binding signal (z-score),[14],3.71
same,glycan array binding signal (z-score),[15],2.18
same,glycan array binding signal (z-score),[16],-0.034
same,glycan array binding signal (z-score),[17],0.022
same,glycan array binding signal (z-score),[18],-0.031
same,glycan array binding signal (z-score),[19],3.09
same,glycan array binding signal (z-score),[20],3.45
same,glycan array binding signal (z-score),Neu5Ac(a2-3)Gal(b1-4)Glc,0.583
same,glycan array binding signal (z-score),[21],0.727
same,glycan array binding signal (z-score),[22],0.528
same,glycan array binding signal (z-score),[23],0.736
same,glycan array binding signal (z-score),[24],0.379
same,glycan array binding signal (z-score),[25],0.444
same,glycan array binding signal (z-score),[26],0.411
same,glycan array binding signal (z-score),[27],2.02
same,glycan array binding signal (z-score),[28],0.249
same,glycan array binding signal (z-score),[29],1.11
same,glycan array binding signal (z-score),[30],4.39
same,glycan array binding signal (z-score),[31],1.29
same,glycan array binding signal (z-score),[32],0.028
